Measurements reported in PubChem BioAssay AID1345083 (National Center for Advancing Translational Sciences (NCATS), 2018).
In all, about 94,000 compounds went through this assay and about 6,200 (6.6%) were called active. This list was built around the results that the source calls inconclusive (neither active nor inactive); the mix of calls is not that of the screen. The call rests on the fitted dose curve; in most records, active means well fitted inhibition curve with a large enough effect; inconclusive means small, poorly fitted or top-dose-only effect; inactive means flat fitted curve, though single readings scatter. Potencies beside an inconclusive call are fits to weak or partial responses and may not hold up.

Test: Cytotoxic Profiling in HEK 293 Cell Line of Diverse Libraries Using Quantitative High-Throughput Screening; further: nearly all actives have a fitted effect of over 60% in size
Conditions: HEK 293 viability, ATP luminescence (CellTiter-Glo), 48-72 h; series mostly up to 115 µM
Summary of the method: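 250 HEK 293 cells/well; compound by pintool; incubated 48 or 72 hr at 37 degree Celsius; CellTiter-Glo added, 10 min RT, luminescence imaged.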
Potency means the concentration at half of the fitted maximal effect; tags describe the fitted curve by direction and shape.

Row | SMILES | Potency
1 | COCCOC1CCOC2(CCN(C(=O)c3cccc(F)c3)CC2)C1 (stereo unspecified) | inactive
2 | O=C(COc1ccccc1)N1CCC(O)(c2csc(CN3CCc4ccccc4C3)n2)CC1 | inconclusive: 50.1 µM [inhibitor, partial curve, poor fit]
3 | Cc1nn(C)c(C)c1S(=O)(=O)N1CCC(c2noc(-c3ccccc3)n2)C1 (stereo unspecified) | inconclusive: 39.8 µM [inhibitor, partial curve]
4 | COCCNC(=O)[C@@H]1C[C@H](Oc2ccccc2)CN1C(=O)c1ncoc1-c1cccc(C)c1 | inconclusive: 100 µM [inhibitor, single point]
5 | CCOc1ccc(CCNC(=O)Cn2cccc2-c2nc(-c3ccc(F)cc3)no2)cc1OCC | inconclusive: 56.2 µM [inhibitor, partial curve, poor fit]
6 | Cc1nc2c(c(-c3ccc(O)cc3)n1)CN(C(=O)Nc1ccccc1)CCC2 | inactive
7 | CCN1C(=O)CN(C(=O)CCc2ccccc2)CC12CCOCC2 | inactive
8 | Cc1cc(NC(=O)N2CCCC(Cn3c(C)nc4cccnc43)C2)ccc1Br (stereo unspecified) | active: 31.6 µM
9 | CC(C)CCNC(=O)N1CC(C(=O)N(C)C)C2(CCOCC2)C1 (stereo unspecified) | inactive
10 | COc1cc(=O)n2c(c1C(=O)Nc1cccc(C(C)C)c1)CCCC2 | inactive
11 | C[C@H]1[C@@H]2[C@@H](O)C([C@H](C)C(=O)N(C)Cc3ccccc3)CC[C@@]2(C)CC[C@@H]1NC(=O)c1ccccn1 (stereo partly specified) | inconclusive: 31.6 µM [inhibitor, partial curve, poor fit]
12 | COC(=O)CNC(=O)c1nc(-c2ccc(Cl)cc2)c2ccccn12 | inactive
13 | N#Cc1cccc(C(=O)N2CCCCCNC(=O)[C@@H]3CCC[C@@H]32)c1 | inactive
14 | CCN(CCOC)Cc1cn(-c2ccc(F)cc2F)nc1-c1ccccc1C | inconclusive: 89.1 µM [inhibitor, single point]
15 | Cc1cn2nc(C(=O)NCc3ccc(C(C)C)cc3)cc2c(=O)[nH]1 | inconclusive: 70.8 µM [inhibitor, partial curve, poor fit]
16 | CC1(c2noc(-c3ccccc3)n2)CCN(C(=O)C2CCN(S(=O)(=O)c3cnc[nH]3)CC2)CC1 | inconclusive: 39.8 µM [inhibitor, partial curve]
17 | O=C1NC(C(=O)N2CCN(Cc3ccc(F)cc3F)CC2)Cn2cccc21 (stereo unspecified) | inactive
18 | Cn1ncc2c(C(=O)NC3CC3)cc(-c3ccc(Cl)nc3)nc21 | inconclusive: 89.1 µM [inhibitor, partial curve]
19 | CNC(=O)c1cc(C2CC2)nc2onc(C3CCN(C(=O)c4ccccc4)CC3)c12 | inactive
20 | O=C(C[C@@H]1CCNC[C@@H]1Cc1cc(-c2ccc(F)cc2)on1)Nc1ccccc1 | active: 39.8 µM
21 | O=C(CCC1CCCC1)N1CC(CO)C2(CCNCC2)C1 (stereo unspecified) | inactive

Row | SMILES | Potency
22 | COc1ccc(-c2cccc(C(=O)N3CCN(C(=O)N(C)C)CC3)c2)nn1 | inactive
23 | O=C(N[C@H]1CCN2C(=O)N(c3cccc(C(F)(F)F)c3)C(=O)[C@@H]2C1)c1ccncc1 | inconclusive: 126 µM [inhibitor, single point]
24 | CS(=O)(=O)Nc1cc(-c2noc([C@@H]3CCCN3Cc3ccccc3F)n2)ccn1 | inconclusive: 70.8 µM [inhibitor, full curve]
25 | C[C@]1(CO)[C@H]2Cc3sc(NC(=O)c4c(F)cccc4F)nc3[C@@H](CC(=O)NCc3cccnc3)[C@]2(C)CC[C@H]1O | inconclusive: 50.1 µM [inhibitor, partial curve, poor fit]
26 | COc1cccc(N2CC(C(=O)NCc3cccc(Cl)c3)NC2=O)c1 (stereo unspecified) | inconclusive: 89.1 µM [inhibitor, single point]
27 | NCCn1cc(C(=O)NCc2cc3n(n2)CCN(C2CCCCC2)C3)nn1 | inactive
28 | COc1ccccc1-c1ccc(CN)cc1 | inconclusive: 126 µM [inhibitor, single point]
29 | CCN(CC)Cc1nc(C2(O)CCN(Cc3ccc(C(F)(F)F)cc3)CC2)cs1 | inconclusive: 28.2 µM [inhibitor, partial curve, poor fit]
30 | COc1ccc(-c2noc([C@@H]3CCCN3C(=O)Cc3cccc(C)c3)n2)cc1 | inconclusive: 50.1 µM [inhibitor, partial curve, poor fit]
31 | Cc1ccc(C)c(-c2cc3c(=O)n(CCNC(=O)c4ccccc4)ccn3n2)c1 | inconclusive: 56.2 µM [inhibitor, partial curve, poor fit]
32 | CC(=O)N1CCc2sc(C(=O)NC3CCN(Cc4ccccc4)CC3)cc2C1 | inconclusive: 79.4 µM [inhibitor, single point]
33 | Cc1ccc(CN2C[C@@H]3C(=O)N(CCc4ccccc4)C(=O)[C@@H]3C2)c(C)c1 | inconclusive: 89.1 µM [inhibitor, single point]
34 | CCOc1cc(=O)n2c(c1C(=O)Nc1ccc3c(c1)OCCO3)CCCCC2 | inactive
35 | Cc1ccc(CCNC(=O)C2CCN(c3cc(C(F)(F)F)ncn3)CC2)cc1 | inconclusive: 50.1 µM [inhibitor, partial curve, poor fit]
36 | CNC(=O)[C@@H](C1CCCCC1)N1CCC[C@H]1C(=O)N1CCN(CCOC)CC1 | inactive
37 | O=C(NC1CCCc2c1cnn2-c1ccc(F)cc1F)c1ccsc1 (stereo unspecified) | inconclusive: 25.1 µM [inhibitor, partial curve, poor fit]
38 | Cc1cccc(N(C)C(=O)Cn2c(N3CCc4ccccc4C3)nc(C)cc2=O)c1 | inconclusive: 44.7 µM [inhibitor, partial curve, poor fit]
39 | COc1ccc(C(=O)NC2CCN(c3nccc(Nc4ccccc4F)n3)CC2)cc1 | inconclusive: 39.8 µM [inhibitor, partial curve]
40 | Cc1cc(C)c(C)c(S(=O)(=O)N2CCn3c(nn(CC4CC4)c3=O)C2)c1C | inconclusive: 56.2 µM [inhibitor, partial curve, poor fit]
41 | Cc1ccc(CN2C(=O)OC(c3cccc(NC(=O)c4cccs4)c3)C2C(=O)NC2CC2)cc1 (stereo unspecified) | inconclusive: 89.1 µM [inhibitor, single point]
